Source: the BET-seq Pho4 binding data (Le et al. 2018)
This is one part of the list. These are noisy estimates, calculated here from bound and input reads.

These sequences were tested against T1, Pho4 (S. cerevisiae) (UniProt P07270) (assay: relative binding free energy (BET-seq); higher = weaker binding). Details: reference: library average.
T1 sequence: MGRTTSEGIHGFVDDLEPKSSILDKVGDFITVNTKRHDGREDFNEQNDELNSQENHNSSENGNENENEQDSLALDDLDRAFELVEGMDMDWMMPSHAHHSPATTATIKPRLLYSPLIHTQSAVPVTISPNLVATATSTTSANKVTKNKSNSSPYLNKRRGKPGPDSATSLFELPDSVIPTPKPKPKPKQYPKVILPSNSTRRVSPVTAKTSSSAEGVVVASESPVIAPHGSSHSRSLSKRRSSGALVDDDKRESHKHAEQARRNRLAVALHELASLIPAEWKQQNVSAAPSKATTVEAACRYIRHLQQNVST

Sequence	relative binding free energy [kcal/mol]
AGGTCCACGTGTGAGT	0.05
TGGAGCACGTGGTATC	-0.2
TTTCGCACGTGGTAGG	-0.11
CTGTGCACGTGTTATT	-0.1
ATTGCCACGTGAGAGG	0.2
GTCAGCACGTGCGGTG	-0.14
TATTTCACGTGCGTAA	0.06
CTGGGCACGTGGAGCG	-0.24
GTGTGCACGTGGGAGT	-0.15
ATCTACACGTGTTATG	0.1
GTGTTCACGTGCTTTC	0.37
TTTACCACGTGGATTG	-0.08
GGTGACACGTGAGTGG	0.23
GACTTCACGTGGGAGT	0.35
TAGTGCACGTGATTCT	0.18
TGATCCACGTGATTGT	0.12
TGGGCCACGTGGTTCG	-0.05
AGCTGCACGTGGAATG	0.01
GATTACACGTGAGGGA	0.34
TTGGTCACGTGTTGGG	0.14
TGTTGCACGTGAGAGA	0.25
CTGAGCACGTGGGTGA	-0.31
AGATACACGTGGTTAA	0.09
GGTTTCACGTGTTGCC	0.38
GTTGCCACGTGGTAAG	-0.16

Sequence	relative binding free energy [kcal/mol]
TGGTACACGTGAGTCG	0.33
TCGCGCACGTGGGAGG	-0.2
GGGTACACGTGGCCGT	0.16
GTAGCCACGTGTGTAG	-0.18
AGGGGCACGTGGCTTA	-0.22
AGTTTCACGTGTGGTA	0.26
TGTTTCACGTGAAATC	0.51
AGGTCCACGTGGGATT	0.08
GGTGACACGTGTGGTA	0.15
ATGTTCACGTGGGGCA	0.13
TATATCACGTGCGTAG	0.1
GGGGGCACGTGAGATT	0.25
GAGGACACGTGTAGAG	0.15
AATTCCACGTGGTGTT	-0.04
ATTAACACGTGGTCGG	0.05
AATGTCACGTGGAATG	0.08
TGGTCCACGTGTAAGG	0.24
TTTATCACGTGACAGG	0.3
CGGTGCACGTGTCGGG	-0.02
GTTCACACGTGTTAGG	0.16
TGGGACACGTGTGTCT	0.08
TGAAGCACGTGTAATT	0.1
AGATTCACGTGTTCAG	0.34
ATACTCACGTGGTGGT	0.15
AGGGACACGTGGCGTA	-0.16

Sequence	relative binding free energy [kcal/mol]
ATATTCACGTGAATGA	0.34
TTGGTCACGTGTGAAA	0.27
GTTTCCACGTGTTCTT	0.1
TTTCACACGTGATTGA	0.31
GTTCTCACGTGATATT	0.36
TGGTCCACGTGAGTGT	0.16
TGTGACACGTGGGAGA	-0.08
TATCACACGTGGTTTT	0.17
ACATGCACGTGAGGGT	0.04
TGCATCACGTGGTTTA	0.09
TTTGGCACGTGGTATA	-0.11
GCCTACACGTGGGTGT	0.04
TTGGCCACGTGTCTGG	-0.03
AATTTCACGTGGTCGT	0.3
AGAATCACGTGGGGGT	0.09
TTTATCACGTGCGGAT	0.16
TTTTCCACGTGGGATA	-0.07
ACGGGCACGTGGCTGG	-0.26
TCGGTCACGTGTCGGG	0.16
GGTGCCACGTGCGTTG	-0.23
GATGCCACGTGGGCGG	-0.14
GTCATCACGTGGGTGG	0.11
ATAATCACGTGCTAGG	0.21
